Measured values published in paper PMC12136788.
Some of the results follow.

B1: chr18:21005031:21005032:-_ENSMUSG00000033382_ENSMUST00000025177|mus_hu|FALSE|FALSE (ssRNA)
RNA: GGGAGUUCUACAGUCCGACGAUCAAACUUCCAAAGCAAUGACAAAUCAGUCAACAAAAGUAGAACUUUCAAAGGGUUUCUAAAAGCCACUUCCACUGUAAUUGGUUCUUCUACAACUGCAAGUGGAAAUCUUGAAUUAUCUGACAACAGAGGAUUGAGCAUCA
B2: chr2:47387770:47387771:-_ENSG00000143933_ENST00000272298|hu_mus|hu_hu_hu_mus_True|8_38 (ssRNA)
RNA: GGGAGUUCUACAGUCCGACGAUCAAGGUUUAAGGACAAUGACAGUAAGAUAAGGGAAGAAAACAUGGAGGAAUGAAGUCCUAAUUACUAUACAUGCAUAUUUUUUUACAGUAGGGGGGGGGAACCUUACAGAUAAGAGUUACACAACAGAGGAUUGAGCAUCA
B3: chr8:95500983:95500984:-_ENSG00000164944_ENST00000437199|hu_hu|hu_hu_hu_mus_True|18_48 (ssRNA)
RNA: GGGAGUUCUACAGUCCGACGAUCAGAACACAUCUAUCGAGUAAAGGACCGUACAUGACGGCCUCUACCACUGCCUCCACUAACAAAACUUUCCUCUGAGCCUCCACUGCCGCUAUUUUGCACUAGCCAGGACGGUCCCAGGCCCAACAGAGGAUUGAGCAUCA
B4: chr18:34474267:34474268:+_ENSMUSG00000005871_ENSMUST00000115781|mus_mus|FALSE|FALSE (ssRNA)
RNA: GGGAGUUCUACAGUCCGACGAUCUUCUGAUUCAGUUUCAUUCCCAUUGUCGUUUUCCUGAACUGGAGGCAUGAUUCUUAAUUCUACAUCUUUCUGUAUAAAUGGCUCAUCCAGGCUCAGAGCACUUAGGCUGGAGGAACAAGACAACAGAGGAUUGAGCAUCA
B5: chr10:131964826:131964827:+_ENSG00000108010_ENST00000331244|hu_hu|motif|central (ssRNA)
RNA: GGGAGUUCUACAGUCCGACGAUCACUGGAAUAGGCUUUGAGUCCCUGUCGAACCUCUUCAUCUGAGAAGAUAUCAAAACUGCGGAACUGAAUAUUAUGUUUGUGAAGAAUUUCCACCAUCUGCUUGCUGAAACCACAGCGUGGCAACAGAGGAUUGAGCAUCA
B6: chr22:32879901:32879902:+_ENSG00000100225_ENST00000397426|hu_mus|hu_hu_hu_mus_False|1_108 (ssRNA)
RNA: GGGAGUUCUACAGUCCGACGAUCCUCUGCCAUAUGCAUGGCAUCCUGAAUUGACUCAGCUUCAACAUUUUGACUAGGCCCUUCCAUACUGUCAUCAGUCCAGGCAUCAAAUGGGGUGGCCUGUCCUUGGGAUGAAUCACUUGGCAACAGAGGAUUGAGCAUCA
B7: chr4:99997923:99997924:-_ENSG00000197894_ENST00000296412|hu_hu|motif|central (ssRNA)
RNA: GGGAGUUCUACAGUCCGACGAUCAGCACCAUAACCGGUUGAAAUGCCACAACCUAGAAGGCAGACUUUAUCCAAAGGUGCGGAAGGAUCUAUUUUAGCAACAGAGAUAUCAGCCACAACUGUGUAUUCAGAAAAUGUGCUGGUCAACAGAGGAUUGAGCAUCA
B8: chr8:104075188:104075189:+_ENSG00000155097_ENST00000518738|hu_mus|FALSE|FALSE (ssRNA)
RNA: GGGAGUUCUACAGUCCGACGAUCUUUUCUAAACAAGGUGACGUUACAAAGAUAACUGUCUUGGUCCUCUGAAAGAACAUUGCUUGACCUUGGUACUACCAUUUCUGCGAGCGUUUCAUACUGCUUAAUCCAGUCAUUGUGGUUCAACAGAGGAUUGAGCAUCA
B9: 54184345_54186628_411_CDS_ENSMUSG00000021474_ENSMUST00000021930|mouse|control|control (ssRNA)
RNA: GGGAGUUCUACAGUCCGACGAUCGUUUAUCCACUGCCAGAAAAGCACAGCCGGUGUGGUCCGGUAGAAGGUCAUCAUGCAGCCUGUGAUGGUCAUGUUCAUCGGGACCUGAGCUGACAUUCUUCCUAUCAGAGUCAUCUUUUCCAACAGAGGAUUGAGCAUCA
B10: chr2:66667028:66667029:+_ENSG00000143995_ENST00000407092|perfect_dup|motif|central (ssRNA)
RNA: GGGAGUUCUACAGUCCGACGAUCCUCUGACGAGCAGACGUCCCCGCCCGCCACCCCCGGCUCGCGGGGGGUACAAGUAGCGGAUUCACAUUUCUCAAAAAUCAGUGCUAAGAGAGGGAAGAGGGGGUGUCCAUAAAUGGCAUCCAACAGAGGAUUGAGCAUCA
B11: chr17:57752078:57752079:+_ENSG00000141367_ENST00000269122|hu_hu|FALSE|FALSE (ssRNA)
RNA: GGGAGUUCUACAGUCCGACGAUCAAUCAAGUUUUUUAUGACAUCUUCAGAACAGUCAACAUCAAGUAAUCCUCCAAUAACUACAGGAAGUCGACUUGGAUUCACCUUCUGUACAUAUAUCUCUAUAUACUUUUGAAGAUUAUUCAACAGAGGAUUGAGCAUCA
B12: 155556619_155559187_3351_CDS_ENSG00000184863_ENST00000401878|human|control|control (ssRNA)
RNA: GGGAGUUCUACAGUCCGACGAUCUCCUCUGCCUCGUCCGUGCAUGAUGGCCUUCUUCGCCGGGUGAAUUCCUUGGAUGCUUUUGAUCCCUGGAGGGACAGGCGAGUGUGCGUGGGGCCCCGCUGGCAGAUGUGGGGGCUGCUGCAACAGAGGAUUGAGCAUCA
B13: chr11:86991360:86991361:+_ENSMUSG00000018548_ENSMUST00000041282|mus_hu|FALSE|FALSE (ssRNA)
RNA: GGGAGUUCUACAGUCCGACGAUCUUCUCGAAUGAUAUUUUUUGUAGGAUCAUUACAGGACUGGUGAACCAUCUCUACACGAUAUUCAUAUUUAGAAGUUUCAGGCAAGCCAGCUGAGAGCUCCAGAAACACAGAUAAGUAGUACAACAGAGGAUUGAGCAUCA
B14: chr11:87793186:87793187:-_ENSMUSG00000020483_ENSMUST00000020775|mus_mus|FALSE|FALSE (ssRNA)
RNA: GGGAGUUCUACAGUCCGACGAUCCCAGAGUCUGGGAGGGCAGGGAAACACAGAUCUGGACAUUCAUAAGAAAAAUAAAACCUAAAAUCAAACAUUCAAUCCUGUACCCAAUAACGGUUUGAACAGGGAACUCAGUCCCCACCACAACAGAGGAUUGAGCAUCA

The binders below were run against T1, UNK ZnF1-3 (human, UniProt Q9C0B0 31-174) (assay: nsRBNS (natural sequence RNA bind-n-seq); RBNS binding buffer (assumed for nsRBNS): 25 mM Tris pH 7.5, 150 mM KCl, 3 mM MgCl2, 0.01% Triton X-100, 500 ug/ml BSA, 20 U/ml SUPERase-In, 4 C; UNK is unkempt and MSI1 is Musashi-1; names of the RNAs are library labels; protein concentration not given here; high values mean tight binding).
T1 sequence: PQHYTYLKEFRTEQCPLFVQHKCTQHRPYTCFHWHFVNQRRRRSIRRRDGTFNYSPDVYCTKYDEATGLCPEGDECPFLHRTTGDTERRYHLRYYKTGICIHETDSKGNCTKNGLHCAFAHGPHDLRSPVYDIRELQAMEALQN

Binder	binding signal [enrichment R]
B1	0.557
B2	2.32
B3	1.2
B4	0.769
B5	0.832
B6	0.852
B7	2.14
B8	0.69
B9	0.825
B10	1.21
B11	0.368
B12	0.967
B13	1.18
B14	1.62
